# Experimental data from the supplement of paper PMC11741623.
# Some of the results follow. Interaction screen of human proteins with wild-type SARS-CoV-2 proteins by split-DHFR complementation in yeast, 1 µg/mL methotrexate. Value = fitness of the pair (three or more lineages) minus that of the viral protein without a human partner, on a scale set by negative (0) and fused positive (1) controls, mean of up to three cultures; higher = more likely to interact. Active = false discovery rate below 0.05 (one-sided t-test) in at least one culture. Nearly all pairs are not hits, and differences among them are mostly noise (correlation between cultures about 0.3); most hits were seen in one culture only. Human sequences are the Swiss-Prot entries looked up by gene name; the clone may be another isoform. NSP2 values were corrected by the authors for a growth advantage. Listed are human proteins with a hit and a random twelfth of the others.
# B1: WARS2, Q9UGM6 (protein)
# chain: MALHSMRKARERWSFIRALHKGSAAAPALQKDSKKRVFSGIQPTGILHLGNYLGAIESWVRLQDEYDSVLYSIVDLHSITVPQDPAVLRQSILDMTAVLLACGINPEKSILFQQSQVSEHTQLSWILSCMVRLPRLQHLHQWKAKTTKQKHDGTVGLLTYPVLQAADILLYKSTHVPVGEDQVQHMELVQDLAQGFNKKYGEFFPVPESILTSMKKVKSLRDPSAKMSKSDPDKLATVRITDSPEEIVQKFRKAVTDFTSEVTYDPAGRAGVSNIVAVHAAVTGLSVEEVVRRSAGMNTARYKLAVADAVIEKFAPIKREIEKLKLDKDHLEKVLQIGSAKAKELAYTVCQEVKKLVGFL
# B2: CHCHD6, Q9BRQ6 (protein)
# chain: MGSTESSEGRRVSFGVDEEERVRVLQGVRLSENVVNRMKEPSSPPPAPTSSTFGLQDGNLRAPHKESTLPRSGSSGGQQPSGMKEGVKRYEQEHAAIQDKLFQVAKREREAATKHSKASLPTGEGSISHEEQKSVRLARELESREAELRRRDTFYKEQLERIERKNAEMYKLSSEQFHEAASKMESTIKPRRVEPVCSGLQAQILHCYRDRPHEVLLCSDLVKAYQRCVSAAHKG
# B3: TMEM204, Q9BSN7 (protein)
# chain: MTVQRLVAAAVLVALVSLILNNVAAFTSNWVCQTLEDGRRRSVGLWRSCWLVDRTRGGPSPGARAGQVDAHDCEALGWGSEAAGFQESRGTVKLQFDMMRACNLVATAALTAGQLTFLLGLVGLPLLSPDAPCWEEAMAAAFQLASFVLVIGLVTFYRIGPYTNLSWSCYLNIGACLLATLAAAMLIWNILHKREDCMAPRVIVISRSLTARFRRGLDNDYVESPC
# B4: DIRAS2, Q96HU8 (protein)
# chain: MPEQSNDYRVAVFGAGGVGKSSLVLRFVKGTFRESYIPTVEDTYRQVISCDKSICTLQITDTTGSHQFPAMQRLSISKGHAFILVYSITSRQSLEELKPIYEQICEIKGDVESIPIMLVGNKCDESPSREVQSSEAEALARTWKCAFMETSAKLNHNVKELFQELLNLEKRRTVSLQIDGKKSKQQKRKEKLKGKCVIM
# Biological target: SARS-CoV-2 E
# Assay: yeast fitness gain over the viral ORF with no human partner (scaled fitness); higher = more likely to interact
# Method: (§1)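 Split mouse DHFR complementation in pooled diploid yeast: human ORFeome clones carry one fragment and viral ORFs the other; barcoded lineages compete in 1 µg/mL methotrexate and fitness is read by barcode sequencing in up to three cultures.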
row,Binder,yeast fitness gain
1,B1,inactive: 0.0241
2,B2,inactive: -0.0115
3,B3,inactive: 0.00889
4,B4,inactive: -0.0436

# Biological target: SARS-CoV-2 M
# Assay: as above
# Method: as §1
row,Binder,yeast fitness gain
1,B1,inactive: 0.0175
2,B2,inactive: 0.0783
3,B3,inactive: 0.00835
4,B4,inactive: 0.0865

# Biological target: SARS-CoV-2 N
# Assay: as above
# Method: as §1
row,Binder,yeast fitness gain
1,B1,inactive: -0.0238
2,B2,inactive: -0.0285
3,B3,inactive: 0.0765
4,B4,inactive: 0.132

# Biological target: SARS-CoV-2 NSP1
# Assay: as above
# Method: as §1
row,Binder,yeast fitness gain
1,B1,inactive: 0.119
2,B2,inactive: 0.0111
3,B3,inactive: 0.00149
4,B4,inactive: -0.0236

# Biological target: SARS-CoV-2 NSP10
# Assay: as above
# Method: as §1
row,Binder,yeast fitness gain
1,B1,inactive: 0.0246
2,B2,inactive: 0.0317
3,B3,inactive: 0.0309
4,B4,inactive: 0.0145

# Biological target: SARS-CoV-2 NSP12
# Assay: as above
# Method: as §1
row,Binder,yeast fitness gain
1,B1,inactive: -0.0216
2,B2,inactive: -0.00604
3,B3,inactive: 0.0499
4,B4,inactive: 0.0357

# Biological target: SARS-CoV-2 NSP13
# Assay: as above
# Method: as §1
row,Binder,yeast fitness gain
1,B1,inactive: 0.0183
2,B2,inactive: 0.0317
3,B3,inactive: 0.0532
4,B4,inactive: -0.0571

# Biological target: SARS-CoV-2 NSP14
# Assay: as above
# Method: as §1
row,Binder,yeast fitness gain
1,B1,inactive: -0.0616
2,B2,inactive: -0.116
3,B3,inactive: -0.00429
4,B4,inactive: -0.0183

# Biological target: SARS-CoV-2 NSP15
# Assay: as above
# Method: as §1
row,Binder,yeast fitness gain
1,B1,inactive: 0.0607
2,B2,inactive: -0.0703
3,B3,inactive: 0.0924

# Biological target: SARS-CoV-2 NSP16
# Assay: as above
# Method: as §1
row,Binder,yeast fitness gain
1,B1,inactive: -0.102
2,B2,inactive: 0.0331
3,B3,inactive: 0.118
4,B4,inactive: -0.123

# Biological target: SARS-CoV-2 NSP2
# Assay: as above
# Method: as §1
row,Binder,yeast fitness gain
1,B1,inactive: -0.128
2,B2,inactive: -0.14
3,B3,inactive: -0.0395
4,B4,inactive: -0.219

# Biological target: SARS-CoV-2 NSP4
# Assay: as above
# Method: as §1
row,Binder,yeast fitness gain
1,B1,inactive: -0.0438
2,B2,inactive: -0.0179
3,B3,inactive: 0.047
4,B4,inactive: 0.0291

# Biological target: SARS-CoV-2 NSP5
# Assay: as above
# Method: as §1
row,Binder,yeast fitness gain
1,B1,inactive: -0.0126
2,B2,inactive: 0.0874
3,B3,inactive: 0.0747
4,B4,inactive: -0.0903

# Biological target: SARS-CoV-2 NSP6
# Assay: as above
# Method: as §1
row,Binder,yeast fitness gain
1,B1,inactive: 0.0107
2,B2,inactive: 0.0503
3,B3,inactive: 0.0246
4,B4,inactive: -0.0297

# Biological target: SARS-CoV-2 NSP7
# Assay: as above
# Method: as §1
row,Binder,yeast fitness gain
1,B1,inactive: 0.0159
2,B2,inactive: -0.063
3,B3,inactive: 0.0424
4,B4,inactive: -0.0335

# Biological target: SARS-CoV-2 NSP8
# Assay: as above
# Method: as §1
row,Binder,yeast fitness gain
1,B1,inactive: 0.021
2,B2,inactive: -0.0645
3,B3,inactive: 0.00391
4,B4,inactive: 0.0708

# Biological target: SARS-CoV-2 NSP9
# Assay: as above
# Method: as §1
row,Binder,yeast fitness gain
1,B1,inactive: 0.0542
2,B2,inactive: -0.0482
3,B3,inactive: 0.00236
4,B4,inactive: -0.0105

# Biological target: SARS-CoV-2 ORF10
# Assay: as above
# Method: as §1
row,Binder,yeast fitness gain
1,B1,inactive: 0.0405
2,B2,inactive: 0.0256
3,B3,inactive: 0.024
4,B4,inactive: 0.0453

# Biological target: SARS-CoV-2 ORF3A
# Assay: as above
# Method: as §1
row,Binder,yeast fitness gain
1,B1,inactive: 0.0366
2,B2,inactive: 0.0656
3,B3,inactive: 0.0782
4,B4,inactive: -0.0706

# Biological target: SARS-CoV-2 ORF3B
# Assay: as above
# Method: as §1
row,Binder,yeast fitness gain
1,B1,inactive: 0.00456
2,B2,inactive: -0.0221
3,B3,inactive: 0.00976
4,B4,inactive: 0.0531

# Biological target: SARS-CoV-2 ORF6
# Assay: as above
# Method: as §1
row,Binder,yeast fitness gain
1,B1,inactive: 0.00323
2,B2,inactive: 0.0804
3,B3,inactive: 0.0196
4,B4,inactive: 0.0112

# Biological target: SARS-CoV-2 ORF7A
# Assay: as above
# Method: as §1
row,Binder,yeast fitness gain
1,B1,inactive: 0.0433
2,B2,inactive: -0.0555
3,B3,inactive: 0.035
4,B4,inactive: -0.0319

# Biological target: SARS-CoV-2 ORF7B
# Assay: as above
# Method: as §1
row,Binder,yeast fitness gain
1,B1,inactive: -0.00361
2,B2,inactive: -0.00396
3,B3,inactive: 0.0256
4,B4,inactive: 0.0121

# Biological target: SARS-CoV-2 ORF8
# Assay: as above
# Method: as §1
row,Binder,yeast fitness gain
1,B1,inactive: 0.0207
2,B2,inactive: 0.0212
3,B3,inactive: 0.0765
4,B4,inactive: -0.0533

# Biological target: SARS-CoV-2 ORF9B
# Assay: as above
# Method: as §1
row,Binder,yeast fitness gain
1,B1,inactive: -0.0219
2,B2,inactive: 0.0105
3,B3,inactive: 0.0413
4,B4,inactive: 0.00292

# Biological target: SARS-CoV-2 ORF9Bwu (the 73-codon ORF)
# Assay: as above
# Method: as §1
row,Binder,yeast fitness gain
1,B1,inactive: 0.0769
2,B2,inactive: 0.0534
3,B3,inactive: 0.083
4,B4,inactive: -0.0204

# Biological target: SARS-CoV-2 S
# Assay: as above
# Method: as §1
row,Binder,yeast fitness gain
1,B1,inactive: -0.0628
2,B2,inactive: -0.0911
3,B3,inactive: 0.0795
4,B4,inactive: 0.0127
